# Source: ChEMBL document CHEMBL4888484, “Replenishing the malaria drug discovery pipeline: Screening and hit evaluation of the MMV Hit Generation Library 1 (HGL1) against asexual blood stage Plasmodium falciparum ,using a nano luciferase reporter read-out” (2022)
# About 540 (0.36%) of roughly 150,000 compounds showed an effect of 50% or more. This is one part of the list.
# Tested on: Plasmodium falciparum
# Test: Primary screen in NF54 nanoGlo assay, in single point, at 2uM, 72h; a lower Z score goes with more inhibition
# Type: functional, Erythrocyte
# Details: timepoint 72 hour
SMILES,% Inhibition [%],Z score
O=C(NCc1ccco1)c1cnc(-c2ccccc2)nc1N1CCC(Cc2ccccc2)CC1,-20,3.5
Cn1ccnc(N2CC[C@H](c3cccc(Oc4ccccc4)c3)C2)c1=O,-3,0.42
Fc1ccc([C@@H]2CN(c3ncc(C(F)(F)F)cc3Cl)CCO2)cc1,-14,1.78
CC[C@H](C)NS(=O)(=O)c1c(C)c(C)cc2c(C)c(C(=O)N3CCCC3)oc12,-6,0.73
C[C@@H](O)[C@@H]1NC(=O)[C@H]2CN(S(=O)(=O)c3ccc4ccccc4c3)CCN2C1=O,-19,2.26
O=C1CN(C(=O)CCCc2ncc(-c3ccccc3)o2)CCN1,-13,2.52
COc1ccc(COCCCNc2ncc(C)cn2)cc1,-4,0.57
O=C(Nc1ccc2nc3n(c(=O)c2c1)CCCC3)[C@@H]1COc2ccccc2O1,2,-0.38
Cc1ccc(CN2C[C@@H](C(=O)O)C[C@@H](C(=O)NCc3cccnc3)C2)cc1,-9,1.38
CC(C)Cn1ncnc1CN(C)C1(CO)CCOCC1,1,-0.1
CN(C)C(=O)c1nnsc1NC(=O)Nc1ccncc1,-5,0.72
Cc1ccc(-n2c(C)c(CNC[C@H](C)c3ccccc3)c(C(=O)O)c2C)cc1,7,-0.92
COc1ccc(-c2nnc(C)o2)cc1NC(=O)c1ccnn1C(C)C,-14,1.8
COCc1c(C(=O)N2CC3CCC2C3)c(=O)cc(C)n1CCCc1ccccc1 (stereo unspecified),-15,2.67
COc1cc(C(=O)N2CCCC[C@@H]2CCN2CCCCC2)cc(OC)c1OC,-11,1.43
CCC(C)(C)NC(=O)Nc1cccnc1,-4,0.55
NC(=O)CN1C(=O)[C@]2(CCN(C(=O)C3CCOCC3)C2)c2ccccc21,3,-0.32
COc1cc(F)c(C(C)NC2C[C@@H]3COC[C@H]23)cc1OC (stereo partly specified),-1,0.15
O[C@@H](CNC1CCN(C2CCC2)CC1)c1ccc(F)cc1Cl,4,-0.73
O=C(Nc1cc([C@@H]2CCCO2)n[nH]1)C1CCN(C2CC2)CC1,-12,1.16
CS(=O)(=O)N1C[C@H]2CC[C@@H](C1)N(CCCC(=O)c1ccc(F)cc1)C2,-7,1.02
CCc1cccc(C)c1-n1nnnc1[C@](C)(CC)N1CCN(C(=O)c2ccco2)CC1,3,-0.36
NC(=O)CC(=O)NC12CCC(C(F)(F)F)(CC1)CC2,-6,0.81
O=C(C1CCCC1)N1CCN(Cc2ccc3c(c2)OCO3)CC1,4,-0.51
COCCON1C(=O)C[C@H](C(=O)OC)C12CCN(C(=O)c1cccc(F)c1F)CC2,-12,2.03
COc1ccc(F)c(CN2CCCN(S(=O)(=O)N3CCCCC3)CC2)c1F,-1,0.14
Cc1cc(NCc2cn3cccnc3n2)ccc1-n1nnnc1C(C)C,-13,1.66

SMILES,% Inhibition [%],Z score
CCC(CC)C(=O)N1CCN(c2cc(N3CCOCC3)ncn2)CC1,-10,0.91
COc1ccccc1-c1cc2nc(C)cc(N3CCN(Cc4ccccc4)CC3)n2n1,-10,1.85
O=C1CC[C@H](NS(=O)(=O)Cc2cccc(C(F)(F)F)c2)CN1,-6,0.96
OCC1CN(c2ccnc(Cc3ccccc3)n2)C1,-9,1.12
C[C@H](NC(=O)c1cccc(N(C)C)c1)C(N)=O,4,-0.62
CN1CCCN(c2ccc(S(=O)(=O)C(F)F)cc2)CC1,-35,4.08
CC[C@@H](c1ccc(Br)cc1)N(C)CCn1cnnc1,-4,0.43
CS(=O)(=O)c1cnn(Cc2cc(Cl)c3c(c2)OCCCO3)c1,-8,0.88
Cc1cc(C(=O)Nc2cccc(-c3nnco3)c2)no1,-8,1.06
Cc1cc(C(=O)Nc2sc(Cc3ccccc3)cc2C(N)=O)no1,-21,2.91
CCc1ccc(CC(=O)N2CCC[C@]3(CCC(=O)N(C4CC4)C3)C2)cc1,13,-1.69
CN(Cc1nnn(CC(=O)c2ccnn2C)n1)C(=O)c1ccccc1,-3,0.41
O=C(COc1ccccc1)N1CC(OCC(F)(F)F)C1,0,-0.02
C=CCN(Cc1ccc(F)cc1)C(=O)c1ccc(CN2CCN(C)CC2)o1,16,-2.04
O=C(C1CCCCC1C(=O)N1CCCC(O)C1)N1CCCC1 (stereo unspecified),-7,1.3
CC(C)OCc1ccc(CNCc2c[nH]nc2-c2cccnc2)cc1,-7,1.12
C[C@H]1CCN(C(=O)c2ncoc2-c2ccco2)CC12CCC2,8,-1.39
C[C@H]1CCCCN1c1nc(-c2ccccc2)nc2nc(-c3ccccc3)oc12,-14,1.86
O=C(CCn1cnc(-c2ccccc2)c1-c1ccccc1)N[C@H]1CCS(=O)(=O)C1,-3,0.64
Cn1cc2c(n1)c(=O)n(Cc1ccc(F)cc1)c1nn(Cc3cccc(Cl)c3)c(=O)n21,-2,0.3
CC(=O)NCC(=O)N1CCC[C@H](c2[nH]ncc2-c2ccc(C)cc2)C1,-10,1.44
CCc1nc(COc2ccc(C(=O)NCCn3ccnc3)cc2)no1,4,-0.39
CN1CCO[C@H](C(=O)Nc2ccccc2N(C)C2CCCC2)C1,10,-1.2
O=C(CNCc1ccco1)Nc1ncc(Cc2cc(Cl)cc(Cl)c2)s1,-16,2.17
CCN(C[C@H]1COc2ccccc2O1)C(=O)NCc1csc(C)n1,-12,1.85
CCO[C@H]1COC[C@@H]1NC(=O)CCn1cc(C)cn1,-6,0.58
